Measurements: ChEMBL document CHEMBL4888484, “Replenishing the malaria drug discovery pipeline: Screening and hit evaluation of the MMV Hit Generation Library 1 (HGL1) against asexual blood stage Plasmodium falciparum ,using a nano luciferase reporter read-out” (2022)
In all, about 150,000 compounds went through this assay and about 540 (0.36%) showed an effect of 50% or more. The list shows a part of the results.

Test system: Plasmodium falciparum
Experiment: Primary screen in NF54 nanoGlo assay, in single point, at 2uM, 72h; a lower Z score goes with more inhibition
Assay type: functional, Erythrocyte
Settings: timepoint 72 hour

SMILES | % Inhibition | Z score
CCOc1ccc2c(C)c(-c3ncn[nH]3)oc2c1OCC | -9% | 1.28
CCCN(Cc1ccsc1)C(=O)c1cc(C)on1 | -2% | 0.31
CC1(C)CCC[C@@H]1NC(=O)c1ccc2c(c1)OCO2 | 0% | 0.04
CCn1ncc(C(=O)N2C[C@H]3CN(Cc4ccccc4)C[C@@]3(CN(C)C)C2)c1C | -20% | 2.62
COc1cccc(C(=O)N2[C@H](C(=O)NC(C)C)COC23CCN(C(=O)c2cccc(F)c2)CC3)c1 | 4% | -0.54
O=C(CC1CCCO1)NCc1ccc(N2CCCCC2CCO)nc1 (stereo not given) | -7% | 1.03
O=C(O)CCN(CCc1ccccc1)c1nc(-c2cccc(Br)c2)nc2ccccc12 | -14% | 2.1
CCN1CCN(C(=O)c2cccc(-c3cnn4ccccc34)c2)CC1 | 2% | -0.42
CCc1c(C)nn(C)c1NC(=O)NCC1(Cn2nc(C)cc2C)CC1 | -11% | 1.13
O=C(COc1ccc(F)cc1)N[C@@H]1CN(c2ccncn2)C[C@H]1CO | -15% | 2.22
Cc1ccc(C(=O)N[C@@H](C)C(C)(C)C)o1 | -12% | 1.67
N#Cc1ccccc1NC(=O)[C@H]1CC(=O)N(c2ccc3c4c(cccc24)CC3)C1 | -10% | 1.89
Cc1c(C(=O)NCc2cccnc2N2CCC(C(N)=O)CC2)cnn1CC(C)C | -9% | 1.23
CCc1ccc([C@H](C)NCc2csc(N(C)C)n2)o1 | 5% | -0.52
COc1cccc(-c2n[nH]c3c2CN(Cc2cc(C#CCO)cs2)CC3)c1 | -10% | 0.93
CC(C)C(=O)N(Cc1cccc(OS(=O)(=O)C(C)C)c1)C(C)C | -9% | 0.85
NC(=O)N1CCC[C@H]1C(=O)N(CCc1ccc(F)cc1)Cc1cccnc1 | -14% | 1.34
Clc1ccccc1-c1noc(C2CCC(c3ccccc3)CC2)n1 (stereo not given) | -11% | 1.92
COc1cc2c(cc1OC)CN(C(=O)c1cn(CC(C)C)c(=O)c3ccccc13)CC2 | -6% | 0.64
CN(C)S(=O)(=O)N1C[C@H]2CC[C@@H](C1)N(C(=O)CCc1cnn(C)c1)C2 | 1% | -0.11
O=C(CCc1cscn1)NC1CCC(c2ccc(F)cc2)CC1 (stereo not given) | -5% | 0.48
O=c1[nH]c(N2CCOCC2)nc(=O)c2c1ncn2CCOc1ccc(F)cc1 | -5% | 0.64

SMILES | % Inhibition | Z score
Cc1nccn1C[C@H]1CCCN(C(=O)Cn2cccn2)C1 | -3% | 0.6
CC(C)(C)c1ccc(Cn2c(C(=O)Nc3ccccc3)cc3cc(NC(=O)c4ccco4)ccc32)cc1 | 3% | -0.38
C[C@H](C(=O)O)C(=O)NCc1cc(Br)ccc1Br | -10% | 1.53
Cc1cncc(CCNC(=O)NC2CC(N3CCC(C(F)(F)F)CC3)C2)n1 (stereo not given) | -11% | 1.49
C[C@H](OCCCN=C(N)N1CCOCC1)c1ccccc1 | -8% | 0.69
Cc1cnc(C[C@H]2CCN(S(=O)(=O)c3ccccc3)C2)n1CC1CC1 | -5% | 0.68
OC1(c2nc(-c3cccs3)no2)CCCC1 | -7% | 0.68
CN(CCCc1nccn1C)Cc1cc(O)c2cccc(F)c2n1 | -11% | 1.97
O=C(Cc1ccc(Br)cc1)N1CCC(N2C(=O)CNC2=O)CC1 | -5% | 0.88
CCc1nnsc1C(=O)NCCNc1ccc(C#N)cn1 | -4% | 0.49
Cc1cc(Cl)cc(Cl)c1CNC(=O)C[C@H]1CCOC1 | 1% | -0.27
c1cncc(C(NC2CC3CCC2O3)c2ncc[nH]2)c1 (stereo not given) | 6% | -0.91
O=C1NCCN1C1CN(c2nc(C3CCCC3)ns2)C1 | 35% | -3.95
COCCN(CCOC)C(=O)Nc1cc(C)on1 | -9% | 0.94
CNC(=O)c1cccc(C(=O)N2CCN(CC(F)(F)F)CC2(C)C)c1 | -3% | 0.42
COc1ccccc1-c1nnc([C@H]2CCN(Cc3ccc(Cl)cc3)C2)o1 | 29% | -3.25
Nc1nc2c(c(N3CC(N4CCOCC4)C3)n1)CCCC2 | -4% | 0.6
CC(C)(C)n1nnc(CC(=O)N2CCCc3ccc(Cl)c(F)c32)n1 | 0% | 0.03
CN1CCC(O)(CCNC(=O)Cc2ccc(F)c(F)c2F)CC1 | -7% | 1.38
COc1cccc2c1Oc1c(c(=O)n(-c3ccccc3)n1CC(=O)Nc1cccc(F)c1)C2 | -19% | 1.9
COCCn1cncc1CN(C)CCc1cnn(C)c1 | 13% | -1.66
Cc1nc(CN(C)CCc2scnc2C)co1 | 7% | -0.68

SMILES | % Inhibition | Z score
c1ccc(-c2csc(N3CCC(n4ccnc4)CC3)n2)cc1 | -2% | 0.39
CCCn1cc(-c2cc(-c3ccc(O)cc3OC)c(C#N)c(N)n2)c(C)n1 | 9% | -1.42
Cn1cc(N2CCN(Cc3ccc4ccccc4n3)CC2=O)cn1 | -12% | 1.24
O=C(c1ccc2c(c1)CCO2)N1C[C@H]2C[C@H](C1)[C@@H]1CCCC(=O)N1C2 | -4% | 0.39
Cn1nccc1S(=O)(=O)Nc1scc(C(C)(C)C)c1C#N | 1% | -0.16
CNC(=O)[C@@H]1C[C@H](Oc2ccccc2)CN1C1CCN(C(=O)c2nccc3ccccc23)CC1 | 1% | -0.14
Cc1ccc(CCNC(=O)C(=O)Nc2cc(F)c(F)c(F)c2)cn1 | 4% | -0.55
O=C(CC[C@H]1CCCN(Cc2cc3c(cc2Cl)OCO3)C1)N1CCCC1 | -21% | 1.87
CCn1ncnc1[C@H](C)Nc1nc(-c2ccncc2)nc2c1CNC2 | -1% | 0.26
Cc1nsc(NC23CCC2CN(C(=O)C2CCCC2)C3)n1 (stereo not given) | 1% | -0.07
Cc1csc(CNc2cccc(NC(=O)N3CCCCCC3)c2)n1 | -4% | 0.57
Cc1ocnc1C(=O)N(CCOc1ccccc1)C[C@H]1CCCO1 | -14% | 2.37
CC1CCCC(C)N1C(=O)c1sc2ncccc2c1N (stereo not given) | -17% | 1.81
CCOc1ccc(N[C@@H](C)c2cnc(C)nc2C)cn1 | -1% | 0.1
Cc1nn(-c2ccccc2)c2[nH]c(=O)c3c(c12)CCCC3 | -7% | 0.99
C[C@@H](c1ccncn1)N(C)CC(=O)NC1CCCCCCC1 | -4% | 0.74
Cc1ccc(-c2noc(-c3cn(CC(=O)Nc4ccc5c(c4)OCCO5)c4nc(C)ccc4c3=O)n2)cc1 | -13% | 2.09
COC[C@]1(O)CCN(C(=O)c2cn(C)c3ccccc3c2=O)CC1(C)C | -9% | 1.21
CC(C)(C)NC(=O)C(=O)NCCc1ccccc1 | -3% | 0.51
CCNC(=O)N[C@@H]1C=C[C@@H](c2c(C)nn(-c3ccc(C(C)C)cc3)c2C)C1 | 9% | -1.36
O=C(O)c1ccc2c(c1)CN(C(=O)Cc1ccc3c(c1)CCCO3)C2 | -9% | 1.01
NC(=O)[C@H]1CCN(Cc2c(-c3ccccc3)nc3sccn23)C1 | -6% | 1.18

SMILES | % Inhibition | Z score
CCOC(=O)c1nnc(-c2ccccc2)nc1C(=O)OCC | -8% | 1.17
C[C@@](CO)(NCc1ncc[nH]1)C1CCCCC1 | -9% | 1.3
CC(C)c1cc(C(=O)N[C@@H](C)c2nnnn2C)n[nH]1 | 9% | -1.47
CN(C)C(=O)c1ccc(CN[C@H]2CCc3ccccc3OC2)[nH]1 | -3% | 0.33
CCc1c(C(=O)Nc2cnccc2OC)nnn1-c1ccc(OC(C)C)cc1 | 3% | -0.54
Cc1ccc2c(c1)[C@@H](NC(=O)C1COC(CCC(=O)O)C1)[C@H](C)C2 (stereo not given in full) | -8% | 1.3
c1ncc(CNCc2cncs2)s1 | -6% | 0.92
Cc1cc(=O)n(CC(=O)Nc2ccc3c(c2)OCCO3)c(N2CCOCC2)n1 | -17% | 1.84
CCc1nc(O)c(C(=O)N2CCOc3cc(F)c(F)cc32)cc1C | -5% | 0.67
CCCCC(=O)N1CCc2[nH]nc(C(=O)NCCc3ccccc3)c2C1 | -6% | 1.07
O=C1CC[C@@]2(CCCN(c3ncnc4[nH]cnc34)C2)CN1CCc1c[nH]cn1 | -24% | 2.53
Cc1noc(CC(=O)N2CCOCC2)n1 | -29% | 3.38
CCc1cc(-c2nc(C[C@@]3(C)CC3(Cl)Cl)no2)n[nH]1 | -3% | 0.38
CCN(CC)c1ncnc2sc(C(=O)Nc3cccc(C(F)(F)F)c3)c(C)c12 | 2% | -0.35
Cc1ccc(C(=O)NS(=O)(=O)c2cc(S(=O)(=O)N(C)C)ccc2Cl)o1 | -16% | 2.45
CCCn1ncc(C(=O)N2CCC23COC3)c1C1CC1 | -2% | 0.28
CO[C@@]12CC[C@@H](O)C[C@@H]1N(Cc1cc(Cn3cncn3)c(C)cc1C)CC2 | 1% | -0.09
O=C(N[C@H]1CCOC[C@@H]1OCC1CCC1)c1ccc(Cl)cc1F | -5% | 0.58
Cc1ncsc1C(=O)NCCOc1ccc(Cl)cn1 | -9% | 1.04
